Hit rate of the full screen: of about 310,000 compounds, about 14,000 (4.5%) showed an effect of 50% or more. The effect is printed as a negative number. The list shows a part of the results.
Biological target: human ether-à-go-go-related gene (hERG) potassium channel (human, UniProt Q12809)
Test: primary screen, population patch clamp on CHO cells stably expressing hERG
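Further: peak tail current of the secondary pulse compared with the same well before compound.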

Chain of human ether-à-go-go-related gene (hERG) potassium channel (Q12809 whole entry, looked up): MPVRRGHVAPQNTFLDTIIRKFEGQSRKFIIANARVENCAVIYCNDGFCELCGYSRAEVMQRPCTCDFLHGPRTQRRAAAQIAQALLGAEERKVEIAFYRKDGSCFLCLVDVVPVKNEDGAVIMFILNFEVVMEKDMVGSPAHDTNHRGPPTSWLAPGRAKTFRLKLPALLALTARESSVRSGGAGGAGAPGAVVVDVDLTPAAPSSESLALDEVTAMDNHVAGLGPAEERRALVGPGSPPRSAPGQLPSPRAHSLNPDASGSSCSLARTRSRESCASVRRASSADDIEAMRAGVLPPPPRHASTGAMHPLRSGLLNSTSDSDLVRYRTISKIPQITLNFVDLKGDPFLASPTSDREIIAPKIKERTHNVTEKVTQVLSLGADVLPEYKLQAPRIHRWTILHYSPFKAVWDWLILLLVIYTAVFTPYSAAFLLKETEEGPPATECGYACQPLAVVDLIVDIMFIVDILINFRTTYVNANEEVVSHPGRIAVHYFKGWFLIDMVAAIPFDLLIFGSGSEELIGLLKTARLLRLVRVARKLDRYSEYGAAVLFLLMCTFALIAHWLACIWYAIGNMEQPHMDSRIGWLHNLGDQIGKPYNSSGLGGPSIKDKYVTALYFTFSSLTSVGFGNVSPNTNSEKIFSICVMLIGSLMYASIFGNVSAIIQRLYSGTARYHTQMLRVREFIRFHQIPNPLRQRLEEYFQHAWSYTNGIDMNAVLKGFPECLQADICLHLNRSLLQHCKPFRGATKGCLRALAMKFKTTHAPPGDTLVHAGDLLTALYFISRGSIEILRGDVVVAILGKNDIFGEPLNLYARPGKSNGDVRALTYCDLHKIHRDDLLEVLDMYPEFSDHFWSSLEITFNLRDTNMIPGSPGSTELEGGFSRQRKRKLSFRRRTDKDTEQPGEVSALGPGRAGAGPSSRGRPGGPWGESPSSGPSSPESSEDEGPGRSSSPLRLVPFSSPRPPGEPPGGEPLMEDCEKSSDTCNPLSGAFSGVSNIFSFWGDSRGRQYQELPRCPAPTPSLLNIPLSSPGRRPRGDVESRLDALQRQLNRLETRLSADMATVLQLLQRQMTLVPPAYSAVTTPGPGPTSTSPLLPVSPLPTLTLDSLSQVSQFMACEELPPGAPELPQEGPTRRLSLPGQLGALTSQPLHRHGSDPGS

Compared with `C[C@H](C(O)c1ccccc1)N(C)C(=O)CN` (stereo partly drawn), `CCN(CC)C(=O)CP(=O)(c1ccccc1)c1ccccc1` is higher in “hERG current change (%, negative = inhibition) at 10uM” value: 2.95% for the first, 13.5% for the second.

First: COc1ccc(S(=O)(=O)N2CCOC23CCN(C(=O)c2ccccc2Br)CC3)cc1
Second: CCOC(=O)c1ccc(S(=O)(=O)N2CCN(C(=O)c3nn(C)c(=O)c4ccccc34)CC2)cc1
The “hERG current change (%, negative = inhibition) at 10uM” value of the first is lower: -26.7% for the first, -26.5% for the second.

Compared with `CCCc1cc(=O)[nH]c2nnc(SCC(=O)NC3CCCCC3)n12`, `O=C(CCNS(=O)(=O)c1cccc2nonc12)NC1CCCCCC1` is higher in “hERG current change (%, negative = inhibition) at 10uM” value: -11.2% for the first, 8.64% for the second.

Going from `O=C(Nc1nnc(-c2cccnc2)s1)c1cccs1` to `CC1CCN(C(=O)c2ccccc2NC(=O)c2cccs2)CC1`, the “hERG current change (%, negative = inhibition) at 10uM” value rises from -21.4% to -1.21%.

Going from `CCN(CC)C(=O)CSc1nc2cc3c(cc2c(=O)n1CCCC(=O)NCc1ccc(OC)cc1)OCO3` to `O=C(CN(C(=O)CCC(=O)Nc1ccccn1)c1ccc2c(c1)OCO2)NCc1ccco1`, the “hERG current change (%, negative = inhibition) at 10uM” value rises from -21.8% to -12.9%.

First: COc1ccc(S(=O)(=O)Nc2c3ccccc3nc(=O)n2-c2ccccc2)cc1
Second: O=S(=O)(Nc1nc2ccccc2nc1N1CCc2ccccc2C1)c1ccc(Cl)cc1
The “hERG current change (%, negative = inhibition) at 10uM” value of the first is higher: 13.2% for the first, 7.74% for the second.

First: CCOC(=O)c1sc(N=Nc2c(O)[nH]c(=O)[nH]c2=O)c(C(=O)OCC)c1C
Second: CCOC(=O)c1c(C)c(C(=O)N2CCCCCC2)c(C)n1C
The “hERG current change (%, negative = inhibition) at 10uM” value of the first is lower: 1.89% for the first, 10% for the second.

Going from `COc1ccc(-c2n[nH]c(C(F)(F)F)c2-c2cc3ccccc3o2)c(O)c1` to `COc1ccc(CCN2C(=O)c3[nH]nc(-c4ccccc4O)c3C2c2cccc(O)c2)cc1OC` (stereo not drawn), the “hERG current change (%, negative = inhibition) at 10uM” value falls from 1.13% to -1.32%.

Going from `Cn1nc(C(F)(F)F)c(-c2ccc(F)cc2)c1NC(=O)c1ccco1` to `COc1ccccc1NC(=O)c1ccc(-c2ccccc2[N+](=O)[O-])o1`, the “hERG current change (%, negative = inhibition) at 10uM” value rises from -32.8% to 26.7%.

Going from `Cc1nn(C(=O)N2CCCCC2)c(C)c1CN1C(=O)c2ccccc2C1=O` to `CCC(C(=O)NC1CCCCCC1)n1nc(C)c2c(C)n(-c3ccccc3)nc2c1=O` (stereo not drawn), the “hERG current change (%, negative = inhibition) at 10uM” value falls from 2.93% to -23.4%.

Compared with `N#CC(c1ccccc1)(c1ncc(C(F)(F)F)cc1Cl)N1CCOCC1` (stereo not drawn), `O=C(Nc1ccc2ccccc2c1)N1CCN(c2ncccc2C(F)(F)F)CC1` is lower in “hERG current change (%, negative = inhibition) at 10uM” value: 4.23% for the first, -7.58% for the second.

Compared with `CCN(CC)c1ccc(C2Nc3cccc4cccc(c34)N2)c(O)c1`, `Cc1ccc(Cl)cc1NC(=O)c1cc2ccccc2cc1O` is lower in “hERG current change (%, negative = inhibition) at 10uM” value: 22.6% for the first, -15.5% for the second.

First: CCc1ccc[n+](-c2[nH]c(=O)sc2/C=N/N=C(\[O-])c2cccnc2)c1
Second: O=C(CCCN1C(=O)/C(=C\c2cccs2)SC1=S)NNC(=O)c1cccnc1
The “hERG current change (%, negative = inhibition) at 10uM” value of the first is higher: 19.9% for the first, 13.3% for the second.

Compared with `CCc1c(C)sc(NC(=O)C2CC2)c1C(=O)OC(C)C`, `Cc1cccc(C)c1NC(=O)C1(NC(=O)C2CCC(=O)N2)CCCCC1` (stereo not drawn) is higher in “hERG current change (%, negative = inhibition) at 10uM” value: -10.9% for the first, 6.61% for the second.

First: CCc1nnc(NS(=O)(=O)c2ccc(NC(=O)c3ccc(C#N)cc3)cc2)s1
Second: Cc1ccc(S(=O)(=O)N(C)Cc2ccc(C(=O)N/N=C3\CCCC(=O)C3)cc2)cc1
The “hERG current change (%, negative = inhibition) at 10uM” value of the first is higher: 22.7% for the first, 4.23% for the second.

First: CCOC(=O)N1CCC(NC(=O)C2CCN(C(=O)N3CCOc4ccccc43)CC2)CC1
Second: CCOC(=O)N1CCN(c2ccc(O)cc2)CC1
The “hERG current change (%, negative = inhibition) at 10uM” value of the first is lower: 12.6% for the first, 15.6% for the second.

First: Cn1ccsc1=NC(=O)c1ccc(OC(F)(F)F)cc1
Second: Cn1cccc1C(=O)C(=O)Nc1ccccc1
The “hERG current change (%, negative = inhibition) at 10uM” value of the first is higher: 9.41% for the first, 0.586% for the second.

Going from `Cn1c(=O)cc(OCC(=O)N2CCN(C3CCCCC3)CC2)c2ccccc21` to `Cn1cc(C(=O)N2CCCCCC2)c(=O)c2cc(S(=O)(=O)N3CCCCC3)ccc21`, the “hERG current change (%, negative = inhibition) at 10uM” value rises from -18.6% to 9.15%.

First: CC1(OC(=O)CCc2ccccc2)C(=O)C=C2C=C(c3ccc(C#N)cc3)N(Cc3ccccc3)C=C2C1=O (stereo not drawn)
Second: CC(=O)O.O=C(O)c1ccc(-c2nc(-c3ccccc3)c(-c3ccccc3)[nH]2)cc1
The “hERG current change (%, negative = inhibition) at 10uM” value of the first is lower: -51.9% for the first, 3.42% for the second.

First: CC1CC(C)CN(c2ncc3c(n2)CC(c2ccc(Cl)cc2)CC3=O)C1 (stereo not drawn)
Second: C[C@@H]1CN(C(=O)c2nc3ccc(Cl)cn3c2CN(C)CCc2cnn(C)c2)C[C@H](C)O1
The “hERG current change (%, negative = inhibition) at 10uM” value of the first is higher: 12.2% for the first, -14.3% for the second.

First: O=S1(=O)C=C(Oc2ccc3ccccc3c2)c2ccccc21
Second: Cc1cc(C(=O)N/N=C/c2ccc(OCc3ccccc3)cc2)c(C)o1
The “hERG current change (%, negative = inhibition) at 10uM” value of the first is lower: 7.45% for the first, 17.4% for the second.

Compared with `Cn1c(=O)[nH]c(=O)c2c1nc(N1CCCC1)n2CCCSc1nnnn1-c1ccccc1`, `CCCCCCn1c(N2CCCC2)nc2c1c(=O)[nH]c(=O)n2C` is lower in “hERG current change (%, negative = inhibition) at 10uM” value: -13.5% for the first, -43% for the second.

Compared with `COc1ccccc1C(=O)C1CCCN(Cc2cnc(C)s2)C1` (stereo not drawn), `Cc1ncc(CN2CCCC(C(=O)Nc3ccc(-c4cscn4)cc3)C2)cn1` (stereo not drawn) is higher in “hERG current change (%, negative = inhibition) at 10uM” value: -8.13% for the first, -5.31% for the second.

First: Fc1ccc(/C=N/n2c(C3CCCCC3)n[nH]c2=S)cc1
Second: Cc1nn(CC2CCCCC2)c(N)c1-c1ccccc1
The “hERG current change (%, negative = inhibition) at 10uM” value of the first is higher: 11.1% for the first, -12.2% for the second.

Compared with `O=C(Nc1cccc(Cl)c1Cl)c1ccccc1NC(=O)C1CC=CCC1C(=O)O` (stereo not drawn), `O=C(Nc1cccc2ccccc12)N(CCO)C1CCS(=O)(=O)C1` (stereo not drawn) is higher in “hERG current change (%, negative = inhibition) at 10uM” value: 4.38% for the first, 21.1% for the second.

Going from `CC1=CC(C/C(C)=C/COc2ccc3ccc(=O)oc3c2)OC1=O` (stereo not drawn) to `CC(=O)Nc1cccc(OCc2c(F)cccc2Cl)c1`, the “hERG current change (%, negative = inhibition) at 10uM” value rises from 2.36% to 3.13%.

Compared with `O=[N+]([O-])c1cccc(-c2nc(-c3ccccn3)no2)c1`, `O=c1ccc(-c2ccc(S(=O)(=O)Nc3cccc([N+](=O)[O-])c3)s2)n[nH]1` is lower in “hERG current change (%, negative = inhibition) at 10uM” value: 4.68% for the first, -4.47% for the second.

First: CCc1ccc(NC(=O)Cn2nnc(-c3ccc(C)cc3-n3cnnn3)n2)cc1
Second: N#Cc1ccc(NC(=O)CN2C(=O)NC3(CCCC3)C2=O)cc1
The “hERG current change (%, negative = inhibition) at 10uM” value of the first is higher: 0.635% for the first, -9.01% for the second.

Going from `Cc1cc(OC(C)C(=O)N[C@H](C(=O)O)c2ccccc2)c2c3c(c(=O)oc2c1)CCC3` (stereo partly drawn) to `CCOc1cc(NC(=S)NCC2CCCO2)c(OCC)cc1NC(=O)c1ccccc1F` (stereo not drawn), the “hERG current change (%, negative = inhibition) at 10uM” value rises from -3.23% to 3.73%.

First: COc1cccc(NC(=S)N(Cc2cccc(Br)c2)CC2CCC(C(=O)O)CC2)c1 (stereo not drawn)
Second: COc1ccc(NC(=O)C2CCC(C)(C(=O)O)C2(C)C)cc1 (stereo not drawn)
The “hERG current change (%, negative = inhibition) at 10uM” value of the first is higher: 2.19% for the first, -6.39% for the second.

Compared with `CC(C)CCNC(=O)c1cc(-c2cccs2)nc2ccccc12`, `Cn1c(Cn2cnc3ccccc32)nc2ccccc21` is higher in “hERG current change (%, negative = inhibition) at 10uM” value: 5.1% for the first, 11.4% for the second.

Going from `NC(=O)NNC1=Nc2cccc3cccc1c23` to `Clc1ccccc1OCCCOc1cccc2cccnc12`, the “hERG current change (%, negative = inhibition) at 10uM” value rises from 9.25% to 11.6%.

Compared with `COC(=O)C1CCN(S(C)(=O)=O)CC1`, `Cc1ccc(NC(=O)NC2CCN(S(=O)(=O)c3ccc(F)cc3)CC2)cc1` is lower in “hERG current change (%, negative = inhibition) at 10uM” value: 4.45% for the first, -5.65% for the second.

Compared with `CN1CCC(=O)N([C@H](CN=[N+]=[N-])Cc2ccccc2)CC1`, `COc1ccccc1N1CCN(C(=O)c2ccc([N+](=O)[O-])s2)CC1` is lower in “hERG current change (%, negative = inhibition) at 10uM” value: 17.9% for the first, -54.5% for the second.

Going from `CCOc1ccccc1Nc1nc2ccccc2[nH]1` to `CC1(C)CC(=O)C(C2c3ccccc3Oc3ccccc32)C(=O)C1`, the “hERG current change (%, negative = inhibition) at 10uM” value rises from -2.59% to 25.6%.

Going from `Cc1onc(-c2ccccc2Cl)c1C(=O)NCCCN1CCOCC1` to `CCc1c(C(=O)N2CCOCC2)csc1C`, the “hERG current change (%, negative = inhibition) at 10uM” value falls from 9.97% to -4.42%.

Going from `C=C(C)[C@@H]1CC[C@]2(C(=O)O)CC[C@]3(C)C(CCC4[C@@]5(C)CC[C@H](O)C(C)(C)C5CC[C@]43C)C12` (stereo partly drawn) to `C[C@H]1CCC[C@@]2(O[C@H](CCO)C[C@H](O)[C@H]2O)O1`, the “hERG current change (%, negative = inhibition) at 10uM” value falls from 6.48% to -2.78%.

Going from `Cc1ccccc1CC1(CO)CCCN(Cc2ccc(C#CC(C)(C)O)cc2)C1` (stereo not drawn) to `O=C(NN=C1CCCCC1)c1cc(-c2ccccc2)n[nH]1`, the “hERG current change (%, negative = inhibition) at 10uM” value rises from -28.7% to 13.3%.

Going from `CC1(C)C(=O)C2(CCCC2)C(=O)OC1c1ccco1` (stereo not drawn) to `O=C(NNc1ccccc1[N+](=O)[O-])NC1CCCCC1`, the “hERG current change (%, negative = inhibition) at 10uM” value rises from -10.6% to -2.32%.

Going from `CCOc1ccc2c(c1)C(c1ccc(C)o1)=NNC(c1ccncc1)=N2` to `COc1ccc(NC(=O)c2cc(-c3cccnc3)nc3c(C)c(C)ccc23)c(OC)c1`, the “hERG current change (%, negative = inhibition) at 10uM” value falls from 6.32% to -7.38%.

First: COCCNC(=O)c1ccc2snnc2c1
Second: COCCCn1c(=O)/c(=C\c2ccccc2OC(F)F)s/c1=C(/C#N)C(N)=O
The “hERG current change (%, negative = inhibition) at 10uM” value of the first is lower: 2.56% for the first, 7.51% for the second.

Going from `Cc1nn(C)c(C)c1S(=O)(=O)N1CCc2ccccc21` to `Cc1c([N+](=O)[O-])c([N+](=O)[O-])nn1CC(=O)N1CCCCC1`, the “hERG current change (%, negative = inhibition) at 10uM” value falls from -0.253% to -3.28%.

First: Nc1nc(N(Cc2ccccc2)Cc2ccccc2)nc(C(F)(F)F)n1
Second: O=C1C(=O)N(Cc2cccnc2)C(c2cccc(O)c2)/C1=C(\O)c1ccc2c(c1)OCCO2 (stereo not drawn)
The “hERG current change (%, negative = inhibition) at 10uM” value of the first is lower: -2.11% for the first, 5.19% for the second.

In the case of `CC(C)(CNC(=O)c1cc(Cl)c(O)c(Cl)c1)N1CCCCC1`, the “hERG current change (%, negative = inhibition) at 10uM” value is reported as 4.69%.

— article PMC4336329 (PLoS ONE, 2015)
